# Assay results reported in the supplement of paper PMC8183993.
# Values joined by “and” are separate entries in the source; they are usually repeats but may differ in a detail not shown here. Identical values can stand only once. Counter-ions that a name gives are not always drawn. ± gives the standard deviation of the averaged measurements. Whole data set: some 3,100 compounds, median “mean cytoplasmic OPP incorporation (global translation) relative to DMSO” near 100, cut for the lowest 2% near 56. This is one part of the list.
# System: U2OS
# Assay: mean cytoplasmic OPP incorporation (global translation) relative to DMSO (% of DMSO); higher = more protein synthesis
# Details: 10 µM; 24 h
# Description: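 Primary image-based screen in U2OS cells: compounds at 10 uM for 24 h, then a 1 h o-propargyl-puromycin (OPP) pulse, click labelling, and high-throughput microscopy. Mean cytoplasmic OPP intensity and nuclei count were normalised to DMSO wells within each plate (DMSO = 100) and averaged over triplicate plates.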
row,SMILES,mean cytoplasmic OPP incorporation
1,COc1ccc(C(=O)NCc2ccc(OCCN(C)C)cc2)cc1OC [Itopride],89.3
2,N[C@@H](C(=O)N[C@@H]1C(=O)N2C(C(=O)O)=C(Cl)CS[C@H]12)c1ccccc1 [Cefaclor hydrate],88.8
3,CCN1CC(CCN2CCOCC2)C(c2ccccc2)(c2ccccc2)C1=O (configuration not stated) [Doxapram HCl],99.6
4,O=C(c1cc(O)c(O)c(O)c1)c1ccc(O)c(O)c1O [Exifone],100
5,Cc1c(C(=O)NN2CCOCC2)nn(-c2ccc(Cl)cc2Cl)c1-c1ccc(I)cc1,102
6,Cc1cnc(CNC(=O)c2c(=O)c3ccc(N4CCCN(C)CC4)nc3n3c2sc2ccccc23)cn1,116
7,CN(C)Cc1cccc(N/C(=C2\C(=O)Nc3cc(C(N)=O)ccc32)c2ccccc2)c1,92.6
8,CC(=O)N[C@H]1[C@H]([C@H](O)[C@H](O)CO)OC(C(=O)O)=C[C@@H]1NC(=N)N [Zanamivir (Relenza)],99.8
9,Nc1ncnc2c1ncn2[C@@H]1O[C@H](COP(=O)(O)OP(=O)(O)OP(=O)(O)O)[C@@H](O)[C@H]1O [ATP (Adenosine-Triphosphate)],98.7
10,CC(C)Oc1ccc2c(=O)c3cc(C(=O)O)ccc3oc2c1,102
11,CNCCC(Oc1ccc(C(F)(F)F)cc1)c1ccccc1 (configuration not stated) [Fluoxetine hydrochloride],101 ± 9.2
12,Cc1nc2n(c(=O)c1CCN1CCC(c3noc4cc(F)ccc34)CC1)CCCC2 [Risperidone],110
13,C[C@@H](CN1CC(=O)NC(=O)C1)N1CC(=O)NC(=O)C1 [Dexrazoxane HCl],112
14,C[C@@H](CN1CC(=O)NC(=O)C1)N1CC(=O)NC(=O)C1 [Dexrazoxane hydrochloride],101
15,C#CCN1C(C)=C(C(=O)OC)C(c2cccc([N+](=O)[O-])c2)C(C(=O)OCC)=C1C (configuration not stated),101
16,OCc1cc(C(O)CNCCCCCCOCCCCc2ccccc2)ccc1O (configuration not stated) [Salmeterol],110 ± 3.7
17,CC(=O)OCC(=O)[C@@]12N=C(C)O[C@@H]1C[C@H]1[C@@H]3CCC4=CC(=O)C=C[C@]4(C)[C@H]3[C@@H](O)C[C@@]12C [Deflazacort (Calcort)],114
18,CC(=O)OCC(=O)[C@@]12N=C(C)O[C@@H]1C[C@H]1[C@@H]3CCC4=CC(=O)C=C[C@]4(C)[C@H]3[C@@H](O)C[C@@]12C [Deflazacort],106
19,O=C(O)Cc1sc(-c2ccccc2)nc1-c1ccc(Cl)cc1 [Fentiazac],108
20,CC(C)(C)NC[C@H](O)c1ccc(O)c(CO)c1 [Levalbuterol hydrochloride],107
21,CCn1cc(C(=O)O)c(=O)c2cnc(N3CCCC3)nc21 [Piromidic acid],102
22,COc1ccc(Nc2ncnc3ccc(OC)cc23)cc1 [MPMQ hydrochloride],98.9
23,O=S(=O)(O)CCS [Mesna],101
24,CCOC(=O)OC(C)OC1=C(C(=O)Nc2ccccn2)N(C)S(=O)(=O)c2ccccc21 (configuration not stated) [Ampiroxicam],105
25,O=C(Nc1c(Cl)cncc1Cl)c1ccc(OC(F)F)c(OCC2CC2)c1 [Roflumilast (Daxas)],102
26,CC(=O)[C@H]1CC[C@H]2[C@@H]3C[C@H](C)C4=CC(=O)CC[C@]4(C)[C@H]3[C@@H](O)C[C@]12C [Medrysone],105

row,SMILES,mean cytoplasmic OPP incorporation
1,CCCS(=O)(=O)Nc1ccc(F)c(C(=O)c2c[nH]c3ncc(-c4ccc(Cl)cc4)cc23)c1F [Vemurafenib (PLX4032)],118 ± 4.7
2,C[N+](C)([O-])CCNc1ccc(NCC[N+](C)(C)[O-])c2c1C(=O)c1c(O)ccc(O)c1C2=O [Banoxantrone dihydrochloride],87.9
3,CCCCNC(=O)NS(=O)(=O)c1ccc(C)cc1 [Tolbutamide],82.1 ± 25
4,O=C(O)c1cc(-c2ccc(F)cc2F)ccc1O [Diflunisal],99.5
5,c1ccc2c(-c3ccncc3)c[nH]c2c1 [Rockout],103
6,CCCCC(CC)CNC(=N)NC(=N)NCCCCCCNC(=N)NC(=N)NCC(CC)CCCC (configuration not stated) [Alexidine dihydrochloride],72.4
7,Oc1c2ccccc2c2c3c(cccc13)N=N2,88.6 and 88.2
8,COC(=O)[C@@H]1[C@H]2C[C@H]3c4[nH]c5ccccc5c4CCN3C[C@@H]2CC[C@@H]1O [Yohimbine hydrochloride],102 ± 3.5
9,CC(C)C[C@H](NC(=O)[C@H]1O[C@@H]1C(=O)O)C(=O)NCCCCN=C(N)N,103
10,Cc1[nH]c(/C=C2\C(=O)Nc3ccc(S(=O)(=O)N(C)c4cccc(Cl)c4)cc32)c(C)c1C(=O)N1CCN(C)CC1,88.9
11,CN(C)Cc1ccc(-c2nc3cccc4c3n2CCNC4=O)cc1,122
12,CC1(C)NC(=O)N(c2ccc([N+](=O)[O-])c(C(F)(F)F)c2)C1=O [Nilutamide],98.6 ± 1.5
13,N[C@@H](CC(=O)Nc1ccc(Oc2cc(F)c(F)cc2Br)cc1)C(=O)O,100
14,Cc1nc(NC(=O)N2CCC[C@H]2C(N)=O)sc1-c1ccnc(C(C)(C)C(F)(F)F)c1,92.5 ± 5.2
15,COc1ccc2cc([C@@H](C)C(=O)O)ccc2c1 [(R) -Naproxen sodium salt],94.4
16,Nc1nc(=O)c2c([nH]1)NC[C@@H](CNc1ccc(C(=O)N[C@@H](CCC(=O)O)C(=O)O)cc1)N2C=O [Folinic acid calcium salt],106
17,CC(C)NCC(O)COc1cccc2ccccc12 (configuration not stated) [Propranolol hydrochloride],109
18,COc1ccc2cc1Oc1ccc(cc1)C[C@H]1c3cc(c(OC)cc3CCN1C)Oc1c(OC)c(OC)cc3c1[C@H](C2)N(C)CC3 [Tetrandrine],112
19,Nc1ncnc2c1c(-c1cnc3[nH]ccc3c1)nn2C1CCCC1,44.2
20,Cc1c[nH]c(=O)n(CCCN2CCN(c3ccccc3OCC(F)(F)F)CC2)c1=O,112
21,Cc1coc2c1C(=O)C(=O)c1c-2ccc2c(C)cccc12 [Tanshinone I],104
22,CCC1=C(C)CN(C(=O)NCCc2ccc(S(=O)(=O)NC(=O)N[C@H]3CC[C@H](C)CC3)cc2)C1=O [Glimepiride],100 ± 6.4
23,Cc1ccccc1-n1c(Cn2nc(-c3cccc(O)c3)c3c(N)ncnc32)nc2cccc(C)c2c1=O,102
24,C[C@@]12C[C@@]3(O)O[C@@H](O1)[C@]1(COC(=O)c4ccccc4)[C@H]3C[C@@]12O[C@@H]1O[C@H](CO)[C@@H](O)[C@H](O)[C@H]1O [Paeoniflorin],110
25,CCS(=O)(=O)CCn1c([N+](=O)[O-])cnc1C [Tinidazole],103
26,N#C[C@@H]1C[C@@H]2C[C@@H]2N1C(=O)[C@@H](N)C12CC3CC(CC(O)(C3)C1)C2,101

row,SMILES,mean cytoplasmic OPP incorporation
1,O=C1CCc2cc(OCCCCc3nnnn3C3CCCCC3)ccc2N1 [Cilostazol],106 ± 3
2,O=P(O)(O)C(Cl)(Cl)P(=O)(O)O [Clodronate],106
3,Oc1ccc(-c2nc3cc(O)cc(Br)c3o2)cc1,89.5
4,CCCCOc1cc(C(=O)NCCN(CC)CC)c2ccccc2n1 [Dibucaine],114
5,"C[C@H](CC[C@@H]1OC1(C)C)[C@H]1CC[C@H]2[C@@H]3CC=C4C[C@@H](O)CC[C@]4(C)[C@H]3CC[C@]12C [24(S),25-Epoxycholesterol]",112
6,CN(C)[C@@H]1C(O)=C(C(N)=O)C(=O)[C@@]2(O)C(O)=C3C(=O)c4c(O)ccc(Cl)c4[C@@](C)(O)[C@H]3C[C@@H]12 [Chlortetracycline hydrochloride],106
7,CC(C)[C@H](N)C(=O)N[C@H](C(=O)N[C@H](C(=O)O)C(C)C)C(C)C,114
8,CC(=O)N(CC(C)C(=O)O)c1c(I)cc(I)c(N)c1I (configuration not stated) [Iocetamic acid],87.2
9,CCCCCCCCc1ccc(CCC(N)(CO)CO)cc1 [Fingolimod (FTY720)],91.9 ± 15
10,C[C@]12CC[C@@H]3c4ccc(O)cc4CC[C@H]3[C@@H]1CCC2=O [Estrone],101 ± 3.9
11,COC(=O)c1c(-c2cc(OC)c(OC)c(OC)c2)c2ccnc(OCc3ncccn3)c2c(=O)n1Cc1ccnc(C)c1 [T 0156 hydrochloride],101
12,c1ccc(N2CCN(Cc3nc4ccccc4[nH]3)CC2)nc1 [ABT 724 trihydrochloride],92.8
13,CC(C)c1cc(C(=O)N2Cc3ccc(CN4CCN(C)CC4)cc3C2)c(O)cc1O,87.6
14,CCOC(=O)C1=C[C@]2(CC)CCCN3CCc4c(n1c1ccccc41)[C@@H]32 [Vinpocetine (Cavinton)],117
15,CCOC(=O)C1=C[C@]2(CC)CCCN3CCc4c(n1c1ccccc41)[C@@H]32 [Vinpocetine],103 ± 16
16,CNCCC(Oc1ccccc1OC)c1ccccc1 (configuration not stated) [Nisoxetine hydrochloride],97.4 ± 6.5
17,CCCCC(C)(O)C/C=C/[C@H]1[C@H](O)CC(=O)[C@@H]1CCCCCCC(=O)OC (mixture of isomers) [Misoprostol],106
18,COc1ccccc1O [Guaiacol],99.2
19,O=NN(CCCl)C(=O)NC1CCCCC1 [Lomustine (CeeNU)],108
20,COc1cc(CCC(C)=O)ccc1O [Vanillylacetone],103
21,O=C(O)CCC(=O)Nc1ccc(S(=O)(=O)Nc2nccs2)cc1 [Succinylsulfathiazole],97.2
22,COc1cnc(NS(=O)(=O)c2ccc(N)cc2)nc1 [Sulfameter],107
23,Cn1cnnc1Sc1c([N+](=O)[O-])ncn1C,97.3
24,Cc1cccc(CN2CCN(C(c3ccccc3)c3ccc(Cl)cc3)CC2)c1 (configuration not stated) [Meclozine dihydrochloride],116
25,Cc1nnc(C(C)C)n1C1C[C@H]2CC[C@@H](C1)N2CC[C@H](NC(=O)C1CCC(F)(F)CC1)c1ccccc1 (stereo in doubt) [Maraviroc],117
